Experimental findings from PubChem BioAssay AID488969 (Vanderbilt High Throughput Screening Facility, 2010) are described below.

Each structure is given as a SMILES string. In all, about 110,000 compounds were measured (“z-score”: median about -0.1, highest 2% from about 2 on). The list shows a part of the results. The source made the active and inactive calls.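 The calls were made as follows: active = z-score in the third read window above 3 or below -3; inactive = the rest.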

The test addresses Metabotropic glutamate receptor 8 (Rattus norvegicus) (UniProt P70579). Kind of test: mGluR8 Gi/Go-coupled signaling modulation – cell-based, rat, thallium flux, HTS, primary screen (AID 488969). The conditions noted are these: HEK293 rat mGluR8, GIRK (G protein-gated inwardly rectifying potassium channel) thallium flux, FluoZin2; at 10 µM; stronger effect = higher value; submaximal glutamate (EC20) added with thallium.
Chain of UniProt P70579 (P70579 whole entry, looked up): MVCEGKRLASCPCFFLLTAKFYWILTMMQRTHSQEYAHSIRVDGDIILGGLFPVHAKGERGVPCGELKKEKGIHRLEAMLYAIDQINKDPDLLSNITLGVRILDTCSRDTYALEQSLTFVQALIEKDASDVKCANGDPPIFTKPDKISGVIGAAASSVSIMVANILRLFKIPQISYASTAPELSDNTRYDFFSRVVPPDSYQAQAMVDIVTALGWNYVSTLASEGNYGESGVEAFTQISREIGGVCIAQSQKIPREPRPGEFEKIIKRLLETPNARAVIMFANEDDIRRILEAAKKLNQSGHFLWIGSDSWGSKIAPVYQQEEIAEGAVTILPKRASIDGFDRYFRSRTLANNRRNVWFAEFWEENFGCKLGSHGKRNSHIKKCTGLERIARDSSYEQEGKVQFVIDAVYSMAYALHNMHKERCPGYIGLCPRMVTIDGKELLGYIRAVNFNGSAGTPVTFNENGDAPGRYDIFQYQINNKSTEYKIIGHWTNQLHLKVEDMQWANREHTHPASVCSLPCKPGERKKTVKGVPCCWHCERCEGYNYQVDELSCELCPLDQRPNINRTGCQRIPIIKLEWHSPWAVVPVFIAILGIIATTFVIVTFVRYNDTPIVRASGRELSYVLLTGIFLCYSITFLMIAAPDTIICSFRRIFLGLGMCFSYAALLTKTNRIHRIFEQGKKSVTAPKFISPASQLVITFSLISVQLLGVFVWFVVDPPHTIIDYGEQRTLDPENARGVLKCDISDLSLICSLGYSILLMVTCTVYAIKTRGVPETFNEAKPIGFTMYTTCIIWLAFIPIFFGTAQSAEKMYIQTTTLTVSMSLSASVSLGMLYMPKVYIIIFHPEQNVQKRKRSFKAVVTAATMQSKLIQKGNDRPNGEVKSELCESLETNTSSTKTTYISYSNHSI
`N=c1n(CCO)c2ccccc2n1Cc1ccc(Cl)cc1` gave a z-score of 0.111. `O=C(NC1CCN(Cc2nnnn2CCc2ccccc2)CC1)c1ccccc1F`: the z-score was 0.581.

For `COc1ccc(C2Oc3ccccc3C3=C2C(c2cccs2)n2ncnc2N3)cc1` (stereo unspecified), the z-score is -0.348.

For the molecule `Cc1cccc(NC(=O)CSc2nc3c(c(=O)[nH]2)CCC3)c1C`, the z-score is -0.0905. To `Cc1ccc2c(COC(=O)CC3Sc4ccccc4NC3=O)cc(=O)oc2c1C` (stereo unspecified) belongs -0.305; to `COc1cc(-c2nnc(SCC(=O)Nc3ccc4c(c3)OCCO4)o2)cc(OC)c1OC`, -0.076. Take `CC(C)CCOP(=O)(c1ccc(N(C)C)cc1)C(O)c1ccccn1` (stereo unspecified): the z-score was active: 5.74. `Fc1cccc2sc(Nc3nc4c(F)cccc4s3)nc12` returned a z-score of 2.09. The molecule `COc1ccc(NC(=O)C2CC(=O)N(c3cccc(C)c3C)C2)cc1` (stereo unspecified) gave a z-score of -0.437. Turning to `C/C(=N\O)C1(C)N(O)C(C)(C)C(c2ccc(F)cc2)=[N+]1[O-]` (stereo unspecified), the z-score came out at 0.0959. Regarding `O=C(CSc1nc2cc(C(F)(F)F)ccc2n1Cc1ccccc1)NC1CCS(=O)(=O)C1` (stereo unspecified), the z-score was -0.137. `O=C(NN1CCCCC1)c1cccc(COc2ccc(Cl)cc2)c1` came in with a z-score of -0.5. In the case of `Clc1ccc(-c2nc(Cc3ccccc3Cl)no2)cc1`, the z-score is 0.619.

The molecule `CCN(/C=N/c1sc2c(c1C#N)CC(C)(C)NC2(C)C)CC` came in with a z-score of 0.541. In turn, `O=C(NC1CCN(Cc2ccccc2)CC1)c1cc(-c2ccccn2)nc2ccccc12` came in with a z-score of 0.11. With `Cc1cccc(-n2c(SCC(=O)Nc3nonc3C)nnc2-c2ccoc2C)c1`, the z-score is -0.249. Under `O=C(CCN(NC(=O)c1ccccc1)C1=NS(=O)(=O)c2ccccc21)NC1CCCCC1` stands 0.0129. With `CCCNS(=O)(=O)c1ccc(NC(=O)Cc2cccs2)cc1`, the z-score was 0.302. Under `Cc1ccc(C(=O)CCC(=O)O)cc1` stands 0.219. `COCCNS(=O)(=O)c1ccc2c(c1)C(=O)c1cc(S(=O)(=O)NCCOC)ccc1-2` gave a z-score of 0.405.

Molecule `CCOC(=O)N1CCN(C(=O)/C=C/c2ccc3c(c2)OCO3)CC1` displayed a z-score of 0.0645.

As to `CCCCn1nnnc1SCC(=O)N1CCOCC1`, the z-score was 0.271.

`CS(=O)(=O)Nc1ccc(C(=O)NCc2cccnc2)cc1` came in with a z-score of 0.614. Take `COc1ccc(-c2nnc(SC(C)C(=O)Nc3c(C)n(C)n(-c4ccccc4)c3=O)o2)cc1` (stereo unspecified): the z-score was determined as 0.336. On to `Cc1sc(NC(=O)CSc2ncn(-c3ccccc3)n2)nc1-c1ccccc1`, for which the z-score was -0.427. To `CCCCCCC(=O)N=Nc1c(O)[nH]c2ccc([N+](=O)[O-])cc12` belongs -0.0753. Regarding `COc1ccc(Cl)cc1NC(=O)NCCCl`, the z-score is -0.124.

As to `COc1cc(CO)ccc1Oc1nnnn1-c1ccc(C(N)=O)cc1`, the z-score was -0.0931. Molecule `Cc1cccc(NC(=O)/C(C#N)=C/c2ccc(Sc3ccccc3)o2)c1C` displayed a z-score of 0.0856.

In turn, `CCOC(=O)c1c(C2COc3ccccc3O2)csc1NC(=O)c1ccccc1` (stereo unspecified) returned a z-score of -0.287. For the molecule `CC(=O)Nc1ccc(Cc2ccncc2)cc1`, the z-score worked out at 0.145. For the molecule `CCOc1ccccc1OCC(=O)Nc1ccc(S(=O)(=O)Nc2nc(C)cc(C)n2)cc1`, the z-score is 0.12. Take `CCc1ccc(N2CC(C(=O)OCC(=O)Nc3cc(C)on3)CC2=O)cc1` (stereo unspecified): the z-score was -1.65. For `O=C(COC(=O)c1cccnc1)Nc1ccccc1`, the z-score turned out to be 0.274. Under `c1coc(CNc2nc3ccccc3n2CCN2CCOCC2)c1` stands -0.389. As for `CCOC(=O)c1c(NC(=O)C(C)Sc2cccc[n+]2[O-])sc2c1CCN(Cc1ccccc1)C2` (stereo unspecified), the z-score was -0.721. Take `COc1ccc(C)cc1S(=O)(=O)N1CCC(C)CC1`: the z-score is -0.432. As for `CCC(=O)NCCn1ccc2ccccc21`, the z-score stood at 0.191. For `NCCCCCc1nnc(SCc2ccccc2Cl)o1`, the z-score is 1.74. Consider `O=C(COc1ccc(Cl)cc1)NCc1nnc(SCC(=O)Nc2ccc3c(c2)OCCO3)o1`, for which the z-score was -0.152. The molecule `CCOC(=O)c1ccc(NC(=O)NC2CC3CCC(C2)N3Cc2nnnn2C(C)(C)C)cc1` (stereo unspecified) yielded a z-score of 1.36.

For `Cc1ccc(/C(N)=N/OC(=O)c2ccc3c(c2)OCO3)cc1`, the z-score was -0.279.

The molecule `CC1Cc2ccccc2N1Cc1nc2cc(Cl)ccc2c(=O)[nH]1` (stereo unspecified) yielded a z-score of 0.357. `Cc1cccc(OCCC(=O)NCC(=O)Nc2cccc(C)c2C)c1` displayed a z-score of -0.13.

The molecule `COCCOC(=O)C1=C(C)NC(=O)NC1c1c(Cl)nc2c(C)cccn2c1=O` (stereo unspecified) came in with a z-score of 0.162. As to `Cc1cccc(C(=O)NCc2ccc(S(N)(=O)=O)cc2)c1[N+](=O)[O-]`, the z-score turned out to be 0.854. Turning to `CCCc1nc2ccccc2[nH]1`, the z-score was -0.0405. `Cc1ccc2c(c1)nnn2C1CCN(CC(=O)NCCc2nc3ccccc3[nH]2)CC1` returned a z-score of -0.0547. For `COC(=O)c1ccc(NC(=O)c2cccc(OC)c2)cc1`, the z-score turned out to be 0.446. Under `COc1ccc(CCNC(=O)COc2ncnc3cc([N+](=O)[O-])ccc23)cc1` stands -0.00921; under `Cc1nnc(NC(=O)C2C3C=CC(O3)C2C(=O)O)s1` (stereo unspecified), 0.115.

In turn, `O=c1oc2ccccc2c(NCCc2ccccc2)c1[N+](=O)[O-]` displayed a z-score of -0.511. `O=C(Nc1ccccc1C(=O)OC1CCOC1=O)c1ccco1` (stereo unspecified) returned a z-score of -0.352.

The molecule `O=C(/C=C1\SC(=O)N(CC(=O)Nc2ccc(Cl)cc2)C1=O)Nc1ccc(F)cc1` gave a z-score of 0.279. `COc1ccc(/C=C/C(=O)OCC(=O)NCC2CCCO2)cc1` (stereo unspecified): the z-score is -0.3. To `CCOC(=O)Cn1c(C)cc(=O)c2cccc(C)c21` belongs -0.0778. Molecule `Cc1ccccc1NC(=O)c1cccc(S(=O)(=O)Oc2ccc([N+](=O)[O-])cc2)c1` returned a z-score of -0.469.

Take `CC(C)(C)NC(=O)CN(C(=O)CNS(=O)(=O)c1ccccc1)c1ccc2c(c1)OCCO2`: the z-score was -0.181. Under `COc1ccc(C(=O)N[C@H]2COC(C)(C)O[C@H]2c2ccccc2)cc1` stands -0.11.

As to `COc1ccc([N+](=O)[O-])cc1NC(=S)NC(NC(=O)C(c1ccccc1)c1ccccc1)C(Cl)(Cl)Cl` (stereo unspecified), the z-score was -0.114. Under `COC(=O)CNC(=O)c1ccccc1C` stands -0.175; under `N#CC1(P(=O)(c2ccccc2)c2ccccc2)CC1`, -0.0596; under `CC(=O)COC(=O)CNC(=O)c1ccc(Br)cc1`, 0.0805. Molecule `COc1ccc2cc3cc(C(=O)NCCN4CCc5ccccc5C4)sc3nc2c1` gave a z-score of 0.0144. To `O=C(CSc1nnc(Cn2cnc3ccccc32)o1)c1ccccc1` belongs -0.339; to `CC(=O)OCCCNc1cc(Sc2ccc(C)cc2)c2nonc2c1[N+](=O)[O-]`, 0.452; to `N#CCC(=O)NN=C1CCCCCCCCCCC1`, -0.118. `COC(=O)CC(NS(=O)(=O)c1cccs1)c1ccccc1Cl` (stereo unspecified): the z-score is -0.122.

As to `Cc1noc(C)c1CSCC(=O)Nc1nc2ccc(Oc3ccccc3)cc2s1`, the z-score came out at 1.43.

`CCOc1ccc(-c2c[n+]3c(n2-c2ccccc2)CCCCC3)cc1` showed a z-score of 0.264. Under `CC(C)OC(=O)Cn1nnc(-c2ccccc2)n1` stands -0.0359. To `CC(=O)Nc1cccc(/C(C)=N/NC(=O)c2ccccc2Cl)c1` belongs -0.0913; to `COc1cc(O)c2c(c1)OC(C)(C)CC2=O`, -0.347; to `Cc1ccc(/C=N/NC(=O)CSc2nc3ccccc3n2C)s1`, 0.239. To `CCOC(=O)C1=C(C)NC2=C(C1c1ccc([N+](=O)[O-])cc1)S(=O)(=O)c1ccccc12` (stereo unspecified) belongs -0.175; to `Cc1n[nH]c(C)c1S(=O)(=O)N1CCN(C(=O)c2ccco2)CC1`, -0.425; to `COc1cc(C(=O)Nc2cccc(-c3nncn3C)c2)cc(OC)c1OC`, -1.15. As to `COc1cc(NC(=O)c2ccc(NS(=O)(=O)c3c(C)noc3C)cc2)cc(OC)c1`, the z-score is -1.09. Molecule `O=C(Cn1cnc2c(oc3ccccc32)c1=O)NCC1CCCO1` (stereo unspecified) displayed a z-score of -0.243. `Cc1ccc(C(=O)C(C)OC(=O)C2CC(=O)N(C3CCCCC3)C2)cc1` (stereo unspecified) displayed a z-score of 0.22. Take `Oc1ccc2cccnc2c1`: the z-score is -0.405. `COc1ccc(C(=O)NC(=S)N(CCC(C)C)c2c(N)n(Cc3ccccc3)c(=O)[nH]c2=O)cc1`: the z-score is -0.0755. Under `Cc1ccc(CNC(=O)C23CN(Cc4ccccc4)CC2C(c2ccc([N+](=O)[O-])cc2)=NO3)o1` (stereo unspecified) stands -0.355. Take `COc1cc(OC)cc(C(=O)NC(=S)NNC(=O)c2cnccn2)c1`: the z-score is 1.07. `CC1CCCCN1C(=O)CSc1ccc(-c2ccc(F)cc2)nn1` (stereo unspecified) yielded a z-score of -0.71. Regarding `CCOc1ccc(CN2CCN(C(=O)c3ccccc3)CC2)cc1`, the z-score was -0.0651. In turn, `COc1ccccc1N1CCN(CCCOc2ccc(F)cc2)CC1` came in with a z-score of 0.762.

As to `COCCn1cc(C(=O)N2CCN(C)CC2)c2c3ccccc3n(C)c2c1=O`, the z-score is 0.38. Molecule `Cc1ccc(S(=O)(=O)c2nc(C)oc2NCc2ccccc2)cc1` came in with a z-score of -0.232. For the molecule `O=C(COC(=O)c1cc([N+](=O)[O-])ccc1NCc1ccccc1)NC1CCCCC1`, the z-score was -0.709. On to `Cc1ccc(C)c(NC(=S)NNC(=O)c2csc3c2CCC(C)C3)c1` (stereo unspecified), for which the z-score was active: 13.8. On to `O=S(=O)(/N=C(/Nc1ccc(F)cc1F)c1ccccc1)c1ccc(Br)cc1`, for which the z-score is -0.0866. For `Nc1cccc(S(=O)(=O)NC2=NCCC2)c1`, the z-score was -0.0355. In the case of `Cc1ccccc1CN1CCN(Cc2ccccc2C(F)(F)F)CC1`, the z-score is -0.0939. `CN1CCN(C(=O)Cn2c(=O)oc3cc(S(=O)(=O)NCc4ccccc4)ccc32)CC1` had a z-score of -0.198. The molecule `O=C(c1ccc2c(=O)n3c(nc2c1)CCCCC3)N1CCN(Cc2ccccc2)CC1` showed a z-score of 0.219. For `CN(C(=S)Nc1ccccc1F)C1(c2ccccc2Cl)CCCCC1=O` (stereo unspecified), the z-score was 0.215. `O=C(Nc1cccnc1)c1cccc(F)c1` yielded a z-score of -0.339. In the case of `COc1ccccc1C(=O)NC(C)c1ccccc1` (stereo unspecified), the z-score was -0.0683. For the molecule `Cc1nn(CCC(=O)NNC(=S)Nc2ccc(F)cc2)c(C)c1[N+](=O)[O-]`, the z-score came out at 0.0528. Regarding `O=C(CSc1nc(-c2ccccc2)nn1C(=O)c1ccccc1)Nc1cccc([N+](=O)[O-])c1`, the z-score is -0.523. Take `O=C(c1cccnc1)N1CCN(S(=O)(=O)c2ccc(Cl)cc2)CC1`: the z-score turned out to be 0.335.

With `O=C(CCCc1ccccc1)NCCN1CCOCC1`, the z-score was -0.295. In turn, `Cc1ccc(OCc2nc(-c3ccccc3)no2)c(C)c1` displayed a z-score of -0.0822. In the case of `CCc1ccc2c(c1)c1nc(C)sc1n2CC(=O)OC`, the z-score is 0.0252. `CC(=O)n1nc(-c2cccnc2)nc1N` yielded a z-score of 0.0439. Regarding `O=C1c2ccccc2C(=O)N1CC(=O)N1c2ccccc2Sc2ccc(C(F)(F)F)cc21`, the z-score is -0.314. As for `Cc1nn2c3cc(N4CCOCC4)ccc3nc2c2ccccc12`, the z-score was 1.4. As to `CC(C)c1ccc(CN2CCC(C(=O)NCc3cccnc3)CC2)cc1`, the z-score was found to be 0.0452. `CCOc1cc(C(=S)N2CCOCC2)ccc1O` displayed a z-score of -0.0369. For `COc1ccc(CCN2C(=O)c3ccncc3C2=O)cc1OC`, the z-score is -0.0439.
